This note sets out measurements from PMC7819943, “Rice protein-binding microarrays: a tool to detect cis-acting elements near promoter regions in rice”.

This is one part of the list.

In the assay the target is T1, OsWOX13 (Oryza sativa, UniProt Q5QMM3 1-267).
T1 sequence: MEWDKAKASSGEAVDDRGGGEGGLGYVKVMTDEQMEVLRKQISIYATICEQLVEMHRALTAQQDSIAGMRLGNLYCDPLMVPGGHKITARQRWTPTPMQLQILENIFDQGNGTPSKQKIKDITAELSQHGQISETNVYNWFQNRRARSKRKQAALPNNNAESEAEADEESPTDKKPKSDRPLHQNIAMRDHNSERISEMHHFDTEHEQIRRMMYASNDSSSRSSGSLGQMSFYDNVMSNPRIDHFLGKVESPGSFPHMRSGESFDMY
The experiment in a line: protein-binding microarray (RPBM); PBS, 2% BSA, 51.3 ng/ul salmon testes DNA, 50 uM zinc acetate, 200 nM TF, 25 C, 1 h; high values mean tight binding. Conditions: protein: recombinant; tags: N-terminal polyhistidine and DsRed monomer fusion (pET32a); label: CyDye5-dUTP incorporated in the synthesized complementary strand; 3' TTTTT single-stranded linker to array surface; dsDNA, one strand shown. In outline:
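The binding signal is fluorescence intensity per array feature (arbitrary units). Readings came from an Axon 4000B scanner after a washed, 2% BSA-blocked, double-stranded custom Agilent array had been incubated for 1 h at 25 °C with 200 nM protein and 50 µM zinc acetate. The protein was a Ni–NTA-purified transcription factor fused N-terminally to polyhistidine and DsRed, expressed in E. coli BL21-CodonPlus.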
For the sequence “CAAATTTGACAGATGCAATTATAGTACAATCGTAGTGTAACGGAGTCACCTAGTGCAG”, the binding signal is 31000 fluorescence intensity (a.u.).

Regarding “TAATGTACATAATTACCATTGCACCTTTATTTTGTATAATCGGAGTCACCTAGTGCAG”, the binding signal was 4180 fluorescence intensity (a.u.).

As for “ACTTGAGATTGACAAAGTCATAACGAATGTCTCGTTATTGCGGAGTCACCTAGTGCAG”, the binding signal is 39400 fluorescence intensity (a.u.).

On to “CTTTCAAATTAAATTATACGAGGAACTTTCAACCGTGGCTCGGAGTCACCTAGTGCAG”, for which the binding signal is 4880 fluorescence intensity (a.u.).

As to “AAACCAATTAGTCAGACAATATATACCAGCACAAAATACACGGAGTCACCTAGTGCAG”, the binding signal is 4390 fluorescence intensity (a.u.).

On to “GCGCTGATCAGGGTGGTGATTGCTATTTTGTTCTTGATGGCGGAGTCACCTAGTGCAG”, for which the binding signal is 31900 fluorescence intensity (a.u.).

As to “GCAAATTGTTTCTTGGATTGGAGCAGGTGGTTGGTGAAGACGGAGTCACCTAGTGCAG”, the binding signal was 20400 fluorescence intensity (a.u.).

Regarding “ATATATAATCATTGATCTTAATTATTGAGTGTCAGTAGTACGGAGTCACCTAGTGCAG”, the binding signal was 24400 fluorescence intensity (a.u.).

As for “GCATTTGATAGCAATTTGTGGAAGCTAGAAATGCCTTCACCGGAGTCACCTAGTGCAG”, the binding signal is 9500 fluorescence intensity (a.u.).

Consider “AGCCTAATTAATCCGTCATCAGCAAATGTTTATTGTAGCACGGAGTCACCTAGTGCAG”, for which the binding signal is 29700 fluorescence intensity (a.u.).

Regarding “CGTGTATGACTGACAATTAGCATCCGATCGGGACCGTCCACGGAGTCACCTAGTGCAG”, the binding signal is 29500 fluorescence intensity (a.u.).

“TTTGTTGTTAATTTGTCTCTAATTTTCTAGAAATGTAATTCGGAGTCACCTAGTGCAG”: the binding signal is 18000 fluorescence intensity (a.u.).

For the sequence “TCTCCTGTTTATTTTCTATGCTTTCCCCTATATATACTTGCGGAGTCACCTAGTGCAG”, the binding signal is 3480 fluorescence intensity (a.u.).

As to “CCCGTCAATCCAGCCATGACAACCTGATCCGTCCACGGTGCGGAGTCACCTAGTGCAG”, the binding signal is 5330 fluorescence intensity (a.u.).

For the sequence “TCTCCAATCATATTACTTGCATGCATCGAGGTGATATAACCGGAGTCACCTAGTGCAG”, the binding signal was 8130 fluorescence intensity (a.u.).

For “TTGATTTGATGAAAGAATATCATATGGATATATTTAAGGACGGAGTCACCTAGTGCAG”, the binding signal is 29700 fluorescence intensity (a.u.).

“TCCAAAATTCCATTAAATCAGGTGAATGACTAAAGTGTAACGGAGTCACCTAGTGCAG”: the binding signal is 4340 fluorescence intensity (a.u.).

As to “CTTGTATGACAAAGATTGATTGCAGCTGACCTGGAATTGGCGGAGTCACCTAGTGCAG”, the binding signal was 43500 fluorescence intensity (a.u.).

For the sequence “ATCATCTAATGATTTGGCTTGTCACTTACATTTACAGGTGCGGAGTCACCTAGTGCAG”, the binding signal is 6680 fluorescence intensity (a.u.).

With “AATAATTGAATATATTTTCATAATAAATTTGTCTTGGGTTCGGAGTCACCTAGTGCAG”, the binding signal was 44400 fluorescence intensity (a.u.).

“ATACAATATAATTGTAATTATATTGTAACTTTTATGCAACCGGAGTCACCTAGTGCAG”: the binding signal was 18300 fluorescence intensity (a.u.).

Turning to “ATAAATTTGTACCCTCCAGCTCACACTCAATGTCACCTGGCGGAGTCACCTAGTGCAG”, the binding signal is 13000 fluorescence intensity (a.u.).

Consider “GTCATTTTCCATCACATCAACCTGTCATACACACACAACTCGGAGTCACCTAGTGCAG”, for which the binding signal is 4730 fluorescence intensity (a.u.).

Take “AGTCTATCGTTGGTGGGTGATTGGGAGAGAAACAGTGCGTCGGAGTCACCTAGTGCAG”: the binding signal was 16300 fluorescence intensity (a.u.).

As to “TGTGACAGGGTGTAAAATTTTGCCAGAGGGATCTAAATATCGGAGTCACCTAGTGCAG”, the binding signal was 4220 fluorescence intensity (a.u.).

In the case of “CTTACTGCAAATTACATGTCAGTCCATCTTAGGCTGTGTTCGGAGTCACCTAGTGCAG”, the binding signal is 8610 fluorescence intensity (a.u.).

Regarding “TTGATGATGTGAAGTTTATGAAAACTGTGTCTAGTGTCATCGGAGTCACCTAGTGCAG”, the binding signal is 5070 fluorescence intensity (a.u.).

Consider “CACTAGTAATTACTATTATAGAGCATCTTAAATCTCATCTCGGAGTCACCTAGTGCAG”, for which the binding signal was 14800 fluorescence intensity (a.u.).

For “TTATCAATCAAGGATCAAGAACTTCTTCACAGCAATCTTGCGGAGTCACCTAGTGCAG”, the binding signal was 25100 fluorescence intensity (a.u.).

“TTTCAATTGGTATCAATTCAAACCCACTCACTTAAAATGCCGGAGTCACCTAGTGCAG”: the binding signal is 6960 fluorescence intensity (a.u.).

For the sequence “TGGTTAATTACGTTCCGGTTCATGCTATTGAGGTCCGTTCCGGAGTCACCTAGTGCAG”, the binding signal was 26200 fluorescence intensity (a.u.).

Turning to “TTGAAATTATTCTTGAATAATAATTTATTATGAGCTACTACGGAGTCACCTAGTGCAG”, the binding signal is 8230 fluorescence intensity (a.u.).

“AAAGATGATTTTCATAGTATTGGTTATTCATAATCAATTGCGGAGTCACCTAGTGCAG”: the binding signal was 11800 fluorescence intensity (a.u.).

With “GTACCAATTACGCCAATGAAAGCTAGCAGAAATGGAGGAACGGAGTCACCTAGTGCAG”, the binding signal was 10300 fluorescence intensity (a.u.).

For the sequence “ATTCTATACTTGGCACAAATGCTCGTATTTAAGGTTATTTCGGAGTCACCTAGTGCAG”, the binding signal is 4430 fluorescence intensity (a.u.).

As for “TATATATATATATATATATATATATATATATATATGAGAACGGAGTCACCTAGTGCAG”, the binding signal is 9830 fluorescence intensity (a.u.).

On to “GTATTAACATATGATTAATTATTTAATTAAGTGTTAATTACGGAGTCACCTAGTGCAG”, for which the binding signal was 28200 fluorescence intensity (a.u.).

Take “CGGTTGACAAGAATTATTGACTGCCGAACAGTGATGTACTCGGAGTCACCTAGTGCAG”: the binding signal was 24600 fluorescence intensity (a.u.).

Regarding “AAAATTGATGTTCTCTTTGGTGCATTTCTTTCTTATTGTCCGGAGTCACCTAGTGCAG”, the binding signal is 26800 fluorescence intensity (a.u.).

As to “TAAATTAACATAAATCGGCTTAGAGTTGATTCTTAGCATTCGGAGTCACCTAGTGCAG”, the binding signal is 16600 fluorescence intensity (a.u.).

As to “ATTTCACTGCTATTAAGTTCAATCAACTAAGTTACTTTGACGGAGTCACCTAGTGCAG”, the binding signal was 7960 fluorescence intensity (a.u.).

Take “GTTAGATCCAAGTTACACATTGATTGGGCTGCACAACACCCGGAGTCACCTAGTGCAG”: the binding signal is 8740 fluorescence intensity (a.u.).
